{"source": "paper PMC9842190", "about": "(Seminars in immunology, 2022)", "binders": {"B1": {"name": "Human Factor B (enzyme)", "chain": "TPWSLARPQGSCSLEGVEIKGGSFRLLQEGQALEYVCPSGFYPYPVQTRTCRSTGSWSTLKTQDQKTVRKAECRAIHCPRPHDFENGEYWPRSPYYNVSDEISFHCYDGYTLRGSANRTCQVNGRWSGQTAICDNGAGYCSNPGIPIGTRKVGSQYRLEDSVTYHCSRGLTLRGSQRRTCQEGGSWSGTEPSCQDSFMYDTPQEVAEAFLSSLTETIEGVDAEDGHGPGEQQKRKIVLDPSGSMNIYLVLDGSDSIGASNFTGAKKCLVNLIEKVASYGVKPRYGLVTYATYPKIWVKVSEADSSNADWVTKQLNEINYEDHKLKSGTNTKKALQAVYSMMSWPDDVPPEGWNRTRHVIILMTDGLHNMGGDPITVIDEIRDLLYIGKDRKNPREDYLDVYVFGVGPLVNQVNINALASKKDNEQHVFKVKDMENLEDVFYQMIDESQSLSLCGMVWEHRKGTDYHKQPWQAKISVIRPSKGHESCMGAVVSEYFVLTAAHCFTVDDKEHSIKVSVGGEKRDLEIEVVLFHPNYNINGKKEAGIPEFYDYDVALIKLKNKLKYGQTIRPICLPCTEGTTRALRLPPTTTCQQQKEELLPAQDIKALFVSEEEKKLTRKEVYIKNGDKKGSCERDAQYAPGYDKVKDISEVVTPRFLCTGGVSPYADPNTCRGDSGGPLIVHKRSRFIQVGVISWGVVDVCKNQKRQKQVPAHARDFHINLFQVLPWLKEKLQDEDLGFL"}}, "biological_target": "Human C3b, site-specifically biotinylated at its thioester cysteine (human, UniProt P01024 23-667; P01024 in part)", "sequence (P01024 23-667, chain 1 of 2)": "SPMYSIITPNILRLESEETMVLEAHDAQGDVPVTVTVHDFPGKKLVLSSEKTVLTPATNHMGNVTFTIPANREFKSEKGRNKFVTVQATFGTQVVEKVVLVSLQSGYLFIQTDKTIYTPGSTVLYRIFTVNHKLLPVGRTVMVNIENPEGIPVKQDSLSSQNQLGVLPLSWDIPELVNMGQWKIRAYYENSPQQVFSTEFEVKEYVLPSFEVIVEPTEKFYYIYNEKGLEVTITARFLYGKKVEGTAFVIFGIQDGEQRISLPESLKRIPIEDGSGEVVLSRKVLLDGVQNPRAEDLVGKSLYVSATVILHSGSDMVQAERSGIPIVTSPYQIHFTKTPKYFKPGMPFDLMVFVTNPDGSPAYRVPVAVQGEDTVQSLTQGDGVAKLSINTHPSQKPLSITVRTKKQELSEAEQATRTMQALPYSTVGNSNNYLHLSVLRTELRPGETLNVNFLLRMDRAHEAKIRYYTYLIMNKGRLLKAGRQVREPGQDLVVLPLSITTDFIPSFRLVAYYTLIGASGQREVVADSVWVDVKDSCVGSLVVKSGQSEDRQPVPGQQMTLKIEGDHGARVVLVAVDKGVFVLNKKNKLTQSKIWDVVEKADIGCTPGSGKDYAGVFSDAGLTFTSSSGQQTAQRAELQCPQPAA", "sequence (P01024 749-1663, chain 2 of 2)": "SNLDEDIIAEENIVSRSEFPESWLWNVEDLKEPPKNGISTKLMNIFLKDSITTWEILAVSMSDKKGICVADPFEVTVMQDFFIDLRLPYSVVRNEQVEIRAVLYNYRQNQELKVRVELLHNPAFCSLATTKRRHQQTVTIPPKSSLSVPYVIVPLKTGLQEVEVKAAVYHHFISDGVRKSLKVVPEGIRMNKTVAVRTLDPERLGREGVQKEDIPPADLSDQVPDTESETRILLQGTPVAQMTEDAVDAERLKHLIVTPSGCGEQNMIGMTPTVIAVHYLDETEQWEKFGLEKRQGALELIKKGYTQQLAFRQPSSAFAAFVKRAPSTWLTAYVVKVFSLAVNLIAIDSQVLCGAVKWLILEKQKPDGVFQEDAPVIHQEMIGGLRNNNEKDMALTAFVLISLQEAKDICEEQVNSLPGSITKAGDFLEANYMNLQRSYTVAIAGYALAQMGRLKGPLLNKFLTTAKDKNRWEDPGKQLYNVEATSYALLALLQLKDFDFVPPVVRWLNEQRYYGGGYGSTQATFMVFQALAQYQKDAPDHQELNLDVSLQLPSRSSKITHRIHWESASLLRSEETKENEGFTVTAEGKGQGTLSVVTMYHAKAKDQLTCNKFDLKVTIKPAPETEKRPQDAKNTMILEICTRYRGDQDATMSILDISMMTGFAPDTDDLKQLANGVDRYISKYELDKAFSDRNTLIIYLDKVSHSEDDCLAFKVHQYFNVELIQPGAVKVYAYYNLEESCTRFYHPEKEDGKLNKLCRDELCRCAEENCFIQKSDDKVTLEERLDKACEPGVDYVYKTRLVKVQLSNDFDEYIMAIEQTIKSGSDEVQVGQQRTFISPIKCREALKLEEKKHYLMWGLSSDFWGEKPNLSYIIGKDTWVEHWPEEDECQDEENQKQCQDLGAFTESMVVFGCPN", "experiment": "SPR"}
{"binder": "B1", "values": [{"measurement": "binding result", "result": "binds"}]}
